Laboratory results: PubChem BioAssay (NCATS)
Several values for one entry are separate records, joined by “and”; a condition that tells them apart may be missing. Identical values can stand only once. This is one part of the list. Shown are side measurements of this screen, not its main read-out; they come without a call. Compounds called inactive in the main read-out are mostly missing here. Potencies come from curve fits of mixed quality, noted in brackets.

Test: qHTS Assay for Lipid Storage Modulators (AID 1519)
Settings: Drosophila S3 cells, BODIPY lipid droplet/cell ratio, laser cytometry; measured here: lipid (BODIPY) channel AC50; cells loaded with oleic acid
Procedure, shortened: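 Cells seeded at 5,000 per well were treated with compounds over a concentration series and loaded with oleic acid (400 uM, as added). Lipid droplet fluorescence (488 nm excitation, 500-530 nm channel) was read by laser-scanning cytometry and normalized to 20 uM Triacsin C.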
Tags give direction and shape of the fitted curve.

SMILES | AC50
COc1ccccc1CNc1ccnc(-c2ccccc2CN(C)C)n1 | 10 µM [rising, partial curve, poor fit]
COc1ccc(CNc2ncncc2-c2ccc3c(c2)OCO3)c(OC)c1 | 0.562 µM [rising, partial curve]
Cc1cccc(Nc2cc(Cl)nc(SCC(=O)O)n2)c1C | 7.08 µM [rising, full curve, poor fit] and 15.8 µM [rising, partial curve, poor fit]
Cn1cccc1C(=O)N1CCC2(CCCN(C(=O)Nc3cccc(C#N)c3)C2)CC1 | 0.0282 µM [rising, full curve, poor fit]
COc1ccccc1CNc1nc(-c2cccc(NS(C)(=O)=O)c2)nc2ccccc12 | 0.631 µM [rising, full curve, poor fit]
Cc1cccc(CNc2ccnc(-c3ccccc3C(F)(F)F)n2)c1 | 4.47 µM [rising, full curve, poor fit]
CS(=O)(=O)c1ccc(-c2cc(Br)sc2-c2ccc(F)cc2)cc1 | 4.47 µM [rising, full curve]
O=C(O)CC/C=C\C[C@@H]1CO[C@H](c2ccccc2Cl)O[C@@H]1c1ccccc1O | 28.2 µM [rising, partial curve, poor fit]
COc1cccc(Cn2c(=O)c(CCc3ccccc3)nc3cnc(OC)nc32)c1 | 0.0251 µM [rising, full curve, poor fit]

Same assay, conditions: Drosophila S3 cells, BODIPY lipid droplet/cell ratio, laser cytometry; measured here: lipid channel max response; cells loaded with oleic acid

SMILES | max response
Cc1cc(C)c(S(=O)(=O)Nc2ccccc2C(F)(F)F)c(C)c1 | 55.3%
COc1ccccc1-c1cncnc1NCc1cccs1 | 36.5%
COc1ccccc1-c1nc(N(C)Cc2ccco2)c2ccccc2n1 | 31.2%
COc1ccc(CNc2ncnc3ccc(-c4ccccc4OC)cc23)c(OC)c1 | -1.57%
COc1cc2cc3c4c(cc(OC)c(OC)c4c2cc1OC)CCN3C | 95.7%
COc1ccccc1CNc1nc(-c2ccc(C(=O)N(C)C)cc2)nc2ccccc12 | 39.7%
COc1cccc(Cn2c(=O)c(C)nc3cnc(OCc4ccccc4)nc32)c1 | 17.9%
COc1ccccc1CNc1ncnc2ccc(-c3ccc4c(c3)OCO4)cc12 | 20.7%
COc1ccccc1N1CCN(C[C@@H](O)COc2cccc3ccccc23)CC1 | 127%
Cc1noc(C)c1C(=O)N1CCC2(CCCN(c3ncccn3)C2)CC1 | 51.1%
COc1ccccc1-c1nc(NCc2ccccc2)c2ccccc2n1 | -57.9%
CC(C)C[C@@H](NC(=O)OCC1c2ccccc2-c2ccccc21)C(=O)O | 68.9%
O=c1cc(-c2ccccc2)oc2c1ccc1ccccc12 | 26.7%
COc1cccc(-c2ccc3ncnc(NCc4cccnc4)c3c2)c1 | 6.35%
Nc1cc(=O)[nH]c(N)n1 | -23.9%
Cc1ccc(S(=O)(=O)/C=C\C#N)cc1 | -82.2%
COc1cccc(-c2ccc3ncnc(Nc4ccccc4)c3c2)c1 | 25.9%
Cc1c(-c2ccccc2)oc2cc(O)ccc2c1=O | 73.8%
COc1cccc(Cn2c(=O)c(-c3ccccc3)nc3cnc(OC)nc32)c1 | 43.3%
Clc1ccccc1CNCC1CCC(CNCc2ccccc2Cl)CC1 (centres undefined) | 84.1%

SMILES | max response
Cc1ccccc1-c1nc(N(C)Cc2ccco2)c2ccccc2n1 | 41.4%
CNCC[C@@H](Oc1ccccc1C)c1ccccc1 | 89.7%
COc1cccc(OC)c1OCCNC[C@@H]1COc2ccccc2O1 | 107%
Cn1cccc1C(=O)N1CCC2(CCCN(c3ccccn3)C2)CC1 | 27.1%
COc1ccc(CNc2ncncc2-c2ccccc2OC)c(OC)c1 | 24.4%
CN(Cc1ccco1)c1ncnc2ccc(-c3ccccc3Cl)cc12 | 9.17%
COc1c(-c2ccccc2)oc2c(ccc3occc32)c1=O | 128%
Cc1c(Cl)cccc1Nc1ccccc1C(=O)O | 67.5%
COc1ccccc1-c1cc(=O)c2cc(O)ccc2o1 | 125%
CCCCCCCNS(=O)(=O)c1cccc2c(Cl)cccc12 | 18.7%
CCOC(=O)C1=C[C@@]2(CC)CCCN3CCc4c(n1c1ccccc41)[C@H]32 | 83.4%
COc1ccccc1CNc1ccnc(-c2ccccc2CN(C)C)n1 | 50.3%
COc1ccc(CNc2ncncc2-c2ccc3c(c2)OCO3)c(OC)c1 | 19%
Cc1cccc(Nc2cc(Cl)nc(SCC(=O)O)n2)c1C | 47.5% and 38.9%
Cn1cccc1C(=O)N1CCC2(CCCN(C(=O)Nc3cccc(C#N)c3)C2)CC1 | 15.5%
COc1ccccc1CNc1nc(-c2cccc(NS(C)(=O)=O)c2)nc2ccccc12 | 11.1%
Cc1cccc(CNc2ccnc(-c3ccccc3C(F)(F)F)n2)c1 | 41.6%
CS(=O)(=O)c1ccc(-c2cc(Br)sc2-c2ccc(F)cc2)cc1 | 163%
O=C(O)CC/C=C\C[C@@H]1CO[C@H](c2ccccc2Cl)O[C@@H]1c1ccccc1O | 53.9%
COc1cccc(Cn2c(=O)c(CCc3ccccc3)nc3cnc(OC)nc32)c1 | 28.2%
